Test results as given in PubChem BioAssay AID504467 (National Center for Advancing Translational Sciences (NCATS), 2011).
In all, about 330,000 compounds went through this assay and about 7,700 (2.3%) were called active. Inconclusive results (about 26%) are left out. Calls come from the whole dose curve; as a rule, active = well fitted inhibition curve with a large enough effect; inconclusive = small, poorly fitted or top-dose-only effect, or effect the other way; inactive = flat fitted curve, though single readings scatter. The entries are a selection whose mix differs from that of the whole data set.

Test: qHTS screen for small molecules that inhibit ELG1-dependent DNA repair in human embryonic kidney (HEK293T) cells expressing luciferase-tagged ELG1; note: nearly all actives have a fitted effect of over 55% in size
Details: HEK293T ELG1-luciferase reporter, luminescence, 16 h, DNA damage induced by 5-fluorouridine; series mostly up to 46.1 µM; activity change, negative = inhibition: at the top concentration
Procedure, shortened: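 Step one: seed 2,000 cells per well. Step two: pin-transfer compound or DMSO alongside 5-fluorouridine. Step three: incubate 16 hr, 37 °C, 5% CO2. Step four: add ONE-Glo, wait 30 min, read luminescence.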
% is set by controls: 0 for no effect and ±100 for the full control effect; potency is the fitted concentration of half-maximal effect.

| SMILES | Potency | activity change, negative = inhibition |
| --- | --- | --- |
| Cc1c(/C=N/NC(=O)CNc2ccccc2)c2ccccn2c1C(=O)c1ccc(Cl)cc1 | active: 23.1 µM | – |
| Cc1cn([C@H]2C=C[C@@H](CO)O2)c(=O)[nH]c1=O | – | inactive: 6.9% |
| O=C(NCc1ccccc1)C1=C[C@@H](c2ccc(Br)cc2)C[C@@H](OCc2ccc(CO)cc2)O1 | – | inactive: 5.94% |
| NC1=NC[C@@H](Cc2ccc(O)cc2)N1CCCCC1CCCCC1 | – | inactive: -1.88% |
| COC(=O)c1ccc(C(NC(=O)OCc2ccccc2)/C(F)=C/[C@@H](C)C(=O)NCc2ccc(OC)c(OC)c2)cc1 (stereo partly drawn) | active: 18.4 µM | – |
| CC(C)(C)OC(=O)C[C@H]1C/C=C\C[C@@H](CC(=O)N[C@@H](CO)Cc2ccccc2)C(=O)N2CCC[C@@H]2COC1=O | – | inactive: -19% |
| N/C(=N/O)c1ccccc1N1CCC(Cc2ccccc2)CC1 | active: 14.6 µM | – |
| Cc1nn(Cc2ccc(Cl)cc2)c(C)c1NC(=O)c1c(-c2ccccc2)noc1C | active: 13 µM | – |
| CC(C)c1ccc(CCNC(=O)c2ccc([N+](=O)[O-])cc2)cc1 | active: 9.2 µM | – |
| CCCCNc1cc(C)nc(NCc2ccccc2)n1 | active: 14.6 µM | – |
| COc1ccc(/C=N/n2c(N)c(S(=O)(=O)c3cccs3)c3nc4ccccc4nc32)cc1OC | active: 2.59 µM | – |
| N#C/C(=C\c1ccc(N2CCOCC2)o1)C(=O)N1CCOCC1 | – | inactive: 27.5% |
| COc1cc2c(cc1NC(=O)C(C)Sc1ccc(NC(C)=O)cc1)oc1ccccc12 (stereo not drawn) | active: 16.4 µM | – |
| CCN(c1ccccc1)S(=O)(=O)c1ccc(OC)c(NC(=O)Cc2ccc(OC)c(OC)c2)c1 | active: 18.3 µM | – |
| O=C(C[C@H]1C/C=C\CC[C@@H](Cc2ccc(F)cc2)C(=O)O[C@@H](c2ccccc2)CNC1=O)N[C@H](CO)Cc1ccccc1 | – | inactive: 6.79% |
| O=C(C[C@H]1C/C=C/CC[C@H](Cc2ccc(F)cc2)C(=O)O[C@H](c2ccccc2)CNC1=O)NCCO | – | inactive: -6.94% |
| OCC[C@@H]1C[C@H](O)[C@@H](O)[C@]2(CCCc3ccccc3O2)O1 | – | inactive: 4.02% |
| O=C(NCCN1CCOCC1)/C(=C\c1ccc(F)cc1)NC(=O)c1ccccc1 | – | inactive: 15% |
| C[N+](C)(C)CC(O)CC(=O)O (stereo not drawn) | – | inactive: -3.07% |
| O=c1c(O[C@H]2O[C@@H](CO)[C@H](O)[C@@H](O)[C@@H]2O)c(-c2ccc(O)cc2)oc2cc(O)cc(O)c12 | – | inactive: 18.5% |
| O=C1N=C(N2CCN(c3ccccc3)CC2)S/C1=C/c1ccco1 | – | inactive: -22.5% |
| COC(=O)c1sc(N)c(C(=O)OC)c1COC(=O)CCNS(=O)(=O)c1ccc(C)cc1 | active: 10.3 µM | – |
| CC(=O)Nc1ccc(S(=O)(=O)N=S(C)C)cc1 | – | inactive: 2% |
| C[C@@H]1COC(=O)[C@H](Cc2ccc(F)cc2)C/C=C\C[C@@H](CC(=O)NCCO)C(=O)N1 | – | inactive: 8.4% |
| C[C@H](CO)N1C[C@H](C)[C@@H](CN(C)C(=O)Nc2ccc(C(F)(F)F)cc2)Oc2ccc(NC(=O)NC3CCCCC3)cc2C1=O | – | inactive: 1.79% |
| C[C@H]1COC(=O)[C@H](Cc2ccc(F)cc2)C/C=C\C[C@@H](CC(=O)N(CCO)Cc2ccccc2)C(=O)N1 | – | inactive: -17.5% |
| CC1(C)Oc2ccc3ccc(=O)oc3c2[C@@H](O)[C@H]1O | – | inactive: 26.2% |

| SMILES | Potency | activity change, negative = inhibition |
| --- | --- | --- |
| COc1ccc(C2c3[nH]c4ccccc4c3C[C@H]3C(=O)N(c4ccccc4C(=O)N4CCC[C@@H]4C(=O)O)C(=O)N23)cc1 (stereo partly drawn) | – | inactive: 10.3% |
| O=C(C[C@@H]1C/C=C/CC[C@H](Cc2ccc(F)cc2)C(=O)O[C@H](c2ccccc2)CNC1=O)NCCO | – | inactive: -0.478% |
| COC(C[C@@H](O)CC(=O)[C@@H](C)OCc1ccccc1)OC | – | inactive: 6.84% |
| C/C=C(\C)C(=O)NCCN1C2=NC[C@H](Cc3ccccc3)N2C[C@H]1Cc1ccc(O)cc1 | – | inactive: 19.4% |
| CCC(C)[C@H](NC(=O)N1CC(=O)Nc2ccccc21)C(=O)N[C@H](Cc1c[nH]c2ccccc12)C(=O)O (stereo partly drawn) | – | inactive: 22.1% |
| CC(=O)N1c2ccc(S(=O)(=O)N3CCC(C(=O)NCc4ccccc4Cl)CC3)cc2CC1C (stereo not drawn) | active: 23.1 µM | – |
| O=C(C1CCN(c2ncnc3c2nc2n3CCCCC2)CC1)N1CCN(c2ccc(F)cc2)CC1 | active: 7.3 µM | – |
| CCO[C@@H]1OC(C(=O)Nc2ccccc2)=C[C@H](c2ccc(Br)cc2)[C@H]1CCCO | – | inactive: -8.1% |
| C=CCOC(=O)/C(=C\c1cccc2ccccc12)NC(=O)c1ccccc1 | – | inactive: 18.2% |
| c1ccc(-c2nc(NCc3ccco3)c3ccccc3n2)nc1 | active: 7.31 µM | – |
| CC(C)(C)OC(=O)C[C@@H]1C/C=C\C[C@H](CC(=O)NCCO)C(=O)N2CCC[C@@H]2COC1=O | – | inactive: 13.7% |
| OCC[C@@H]1C[C@H](O)[C@@H](O)[C@@]2(Cc3ccccc3CO2)O1 | – | inactive: 9.32% |
| OC(COc1cccc(OCC(O)CN2CCOCC2)c1)CN1CCOCC1 (stereo not drawn) | – | inactive: 0.109% |
| CCOC(=O)[C@@H]1[C@H]2COc3cc(OC)ccc3[C@@H]2N2C(=O)N(c3ccc(C(F)(F)F)cc3)C(=O)[C@@]12C | – | inactive: 2.38% |
| COC(=O)/C=C1\S/C(=N/NC(=O)c2ccc(OC)cc2)NC1=O | – | inactive: -11.7% |
| CN1CCc2cccc3c2C1Cc1ccc(O)c(O)c1-3 (stereo not drawn) | – | inactive: -18.3% |
| Cc1cccc2[nH]c3c(N4CCC5(CC4)OCCO5)ncnc3c12 | active: 16.4 µM | – |
| O=C(Cn1cnc2cc([N+](=O)[O-])ccc2c1=O)Nc1cccc(S(=O)(=O)N2CCOCC2)c1 | active: 3.26 µM | – |
| CC(C)(O)CC[C@@H](O)[C@](C)(O)[C@H]1CC[C@@]2(O)C3=CC(=O)[C@@H]4C[C@@H](O)[C@@H](O)C[C@]4(C)[C@H]3CC[C@]12C | – | inactive: -1% |
| C=CC[n+]1c(C)csc1Nc1ccc(C(=O)O)cc1 | – | inactive: -1.92% |
| O=C(NC(Cc1ccccc1)C(=O)O)/C(=C/c1ccc(Cl)cc1)NC(=O)c1ccccc1 (stereo not drawn) | – | inactive: 22.1% |
| OCC[C@@H]1C[C@@H](O)[C@H](O)[C@@]2(Cc3ccccc3CO2)O1 | – | inactive: 0.732% |
| C=CCC1Cc2c(cccc2[N+](=O)[O-])C(CC=C)N1 (stereo not drawn) | – | inactive: 16.1% |
| C[C@H](CO)N1C[C@H](C)[C@@H](CN(C)S(=O)(=O)c2ccccc2)Oc2ccc(NC(=O)C3CCCCC3)cc2C1=O | – | inactive: -19.8% |
| C/C(CCN1CCc2nc(-c3ccccc3)c(-c3ccccc3)cc2C1)=N\O[C@H](C)c1cn([C@H](CO)Cc2ccccc2)nn1 | – | inactive: -21.1% |
| CC[n+]1c(/C=C2\C=C(C)CC(C)C2)sc2ccccc21 (stereo not drawn) | – | inactive: -1.07% |
